Results as given in the supplement of paper PMC12067230.
The data scatter; read single values as rough.

test: amyloid nucleation score relative to library mode (yeast Sup35 reporter selection) (log enrichment difference); higher = more amyloid nucleation; sequences are the first 22 residues of the Bri2 peptide extended by up to 12 random residues; details: random library (experiment): 1;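 active = nucleation score significantly above 0 at FDR 0.05; inactive = not significantly above 0 or absent from output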
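Further: [psi-pin-] Saccharomyces cerevisiae expressing SupN fusions, induced by 100 µM Cu2SO4, selected 7 d at 30 °C without adenine and uracil, scored by deep sequencing of output versus input.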

Row | Sequence | amyloid nucleation score
1 | EASNCFAIRHFENKFAVETLICRVLGWFGHVHGM | inactive
2 | EASNCFAIRHFENKFAVETLICRVLSHV | 1.79
3 | EASNCFAIRHFENKFAVETLICRVLSTASPRVGC | inactive
4 | EASNCFAIRHFENKFAVETLICRVLTCISGLGAL | inactive
5 | EASNCFAIRHFENKFAVETLICRVLVLRATGSTW | inactive
6 | EASNCFAIRHFENKFAVETLICRVNRLLRCRTW | inactive
7 | EASNCFAIRHFENKFAVETLICRVPCCPMVCVFI | inactive
8 | EASNCFAIRHFENKFAVETLICRVPRRFQNSEPV | inactive
9 | EASNCFAIRHFENKFAVETLICRVQFCNRIFVRL | inactive
10 | EASNCFAIRHFENKFAVETLICRVQRREGNRSGW | inactive
11 | EASNCFAIRHFENKFAVETLICRVQWKWEAAR | inactive
12 | EASNCFAIRHFENKFAVETLICRVRCESMRGGRG | inactive
13 | EASNCFAIRHFENKFAVETLICRVRCTSGMSRGL | inactive
14 | EASNCFAIRHFENKFAVETLICRVRLEPAITGFG | inactive
15 | EASNCFAIRHFENKFAVETLICRVRLTCRAVVGA | inactive
16 | EASNCFAIRHFENKFAVETLICRVRNVIRFSCSR | -0.187
17 | EASNCFAIRHFENKFAVETLICRVRTICVYVTLC | inactive
18 | EASNCFAIRHFENKFAVETLICRVRW | inactive
19 | EASNCFAIRHFENKFAVETLICRVSCLTMRGWRG | inactive

Row | Sequence | amyloid nucleation score
20 | EASNCFAIRHFENKFAVETLICRVSDVWFMVAGA | inactive
21 | EASNCFAIRHFENKFAVETLICRVSFDRLHTG | 2.86
22 | EASNCFAIRHFENKFAVETLICRVSFDYSGKPCW | 2.31
23 | EASNCFAIRHFENKFAVETLICRVSGCWRTSLRK | 1.89
24 | EASNCFAIRHFENKFAVETLICRVSLNRILACRC | -0.431
25 | EASNCFAIRHFENKFAVETLICRVSQNHESSSYW | 3.38
26 | EASNCFAIRHFENKFAVETLICRVSRSRKQWALS | inactive
27 | EASNCFAIRHFENKFAVETLICRVSSNEKTCMGR | inactive
28 | EASNCFAIRHFENKFAVETLICRVSVLYMVCSTV | inactive
29 | EASNCFAIRHFENKFAVETLICRVSVPACGVTEW | inactive
30 | EASNCFAIRHFENKFAVETLICRVTCRSKPFLRV | inactive
31 | EASNCFAIRHFENKFAVETLICRVTEG | inactive
32 | EASNCFAIRHFENKFAVETLICRVTLNWWRADRG | 0.369
33 | EASNCFAIRHFENKFAVETLICRVTSLPPGLW | inactive
34 | EASNCFAIRHFENKFAVETLICRVVCGSIMSCPN | inactive
35 | EASNCFAIRHFENKFAVETLICRVVHRVRAPHGL | inactive
36 | EASNCFAIRHFENKFAVETLICRVVLHFVHPRRE | inactive
37 | EASNCFAIRHFENKFAVETLICRVVPDVLFLTLS | inactive
38 | EASNCFAIRHFENKFAVETLICRVWFTTGWDGCR | inactive

Row | Sequence | amyloid nucleation score
39 | EASNCFAIRHFENKFAVETLICRVWKQVDVVMGE | -0.324
40 | EASNCFAIRHFENKFAVETLICRVWTKVYTILEQ | inactive
41 | EASNCFAIRHFENKFAVETLICRVWVLCSKHFRS | inactive
42 | EASNCFAIRHFENKFAVETLICRVWWYECGQSEL | 1.94
43 | EASNCFAIRHFENKFAVETLICRW | 0.453
44 | EASNCFAIRHFENKFAVETLICRWACCCALRLGP | inactive
45 | EASNCFAIRHFENKFAVETLICRWCWLMGSMWSL | inactive
46 | EASNCFAIRHFENKFAVETLICRWDQLLGMSLVC | inactive
47 | EASNCFAIRHFENKFAVETLICRWGEGLLLVSDG | inactive
48 | EASNCFAIRHFENKFAVETLICRWGEVARLYFCW | inactive
49 | EASNCFAIRHFENKFAVETLICRWGNSVSSGFTV | inactive
50 | EASNCFAIRHFENKFAVETLICRWLHHGQ | inactive
51 | EASNCFAIRHFENKFAVETLICRWLMPTTGSLQR | inactive
52 | EASNCFAIRHFENKFAVETLICRWLVSSASSWLK | inactive
53 | EASNCFAIRHFENKFAVETLICRWMWIWRVTNGF | inactive
54 | EASNCFAIRHFENKFAVETLICRWNQRRW | 0.848
55 | EASNCFAIRHFENKFAVETLICRWPDWPTETVVR | inactive
56 | EASNCFAIRHFENKFAVETLICRWRAEYLFAFGG | 0.582

same assay, conditions: random library (experiment): 2

Row | Sequence | amyloid nucleation score
57 | EASNCFAIRHFENKFAVETLICRVM | 8.29
58 | EASNCFAIRHFENKFAVETLICRVMAGASSVVCK | inactive
59 | EASNCFAIRHFENKFAVETLICRVMG | inactive
60 | EASNCFAIRHFENKFAVETLICRVMSMSSPFKTV | inactive
61 | EASNCFAIRHFENKFAVETLICRVN | inactive
62 | EASNCFAIRHFENKFAVETLICRVNEAFGDGRP | inactive
63 | EASNCFAIRHFENKFAVETLICRVPNLYNCCSWG | inactive
64 | EASNCFAIRHFENKFAVETLICRVRFEEIYCNSV | 3.04
65 | EASNCFAIRHFENKFAVETLICRVRKALIFKTCS | -0.351
66 | EASNCFAIRHFENKFAVETLICRVRRVLRRYVWA | inactive
67 | EASNCFAIRHFENKFAVETLICRVSCLGTLPNNR | 1.8
68 | EASNCFAIRHFENKFAVETLICRVSVRVHWFYRT | 1.87
69 | EASNCFAIRHFENKFAVETLICRVTCNRACNVV | inactive
70 | EASNCFAIRHFENKFAVETLICRVTMSYKHTNRG | 2.38
71 | EASNCFAIRHFENKFAVETLICRVTYGYKMEFNS | inactive
72 | EASNCFAIRHFENKFAVETLICRVVCMRGVHISY | inactive
73 | EASNCFAIRHFENKFAVETLICRVVCNALNVYWI | inactive
74 | EASNCFAIRHFENKFAVETLICRVVYDNIMFKVW | inactive
75 | EASNCFAIRHFENKFAVETLICRVYLSCVRYKYC | -0.438
76 | EASNCFAIRHFENKFAVETLICRWCPPWYPPSSC | inactive
77 | EASNCFAIRHFENKFAVETLICRWHG | inactive
78 | EASNCFAIRHFENKFAVETLICRWKCFFLHDVDV | inactive
79 | EASNCFAIRHFENKFAVETLICRWKLGSAMAFWR | 0.261
80 | EASNCFAIRHFENKFAVETLICRWLGKSPRRELP | 0.664
81 | EASNCFAIRHFENKFAVETLICRWNVAVDVGCTR | 0.378
82 | EASNCFAIRHFENKFAVETLICRWPLIGLVDLAC | 0.494
83 | EASNCFAIRHFENKFAVETLICRWS | inactive

same assay, conditions: random library (experiment): 3

Row | Sequence | amyloid nucleation score
84 | EASNCFAIRHFENKFAVETLICRVKPSRGMLQNG | inactive
85 | EASNCFAIRHFENKFAVETLICRVLKLSRDVGWR | inactive
86 | EASNCFAIRHFENKFAVETLICRVLRSRINRRAL | inactive
87 | EASNCFAIRHFENKFAVETLICRVLSLRSKSWVW | inactive
88 | EASNCFAIRHFENKFAVETLICRVLWWQRRNADC | inactive
89 | EASNCFAIRHFENKFAVETLICRVNNAYCCFYGR | 7.42
90 | EASNCFAIRHFENKFAVETLICRVNSSN | inactive
91 | EASNCFAIRHFENKFAVETLICRVPVSLFRSYPS | inactive
92 | EASNCFAIRHFENKFAVETLICRVQVPGFRLGDY | inactive
93 | EASNCFAIRHFENKFAVETLICRVR | inactive
94 | EASNCFAIRHFENKFAVETLICRVRLTLVMMTRM | inactive
95 | EASNCFAIRHFENKFAVETLICRVRNGCGRLI | inactive
96 | EASNCFAIRHFENKFAVETLICRVRVMGCLSLNG | inactive
97 | EASNCFAIRHFENKFAVETLICRVRWECERHLIA | 3.1
98 | EASNCFAIRHFENKFAVETLICRVRYFALSVTDT | inactive
99 | EASNCFAIRHFENKFAVETLICRVS | 6.94
100 | EASNCFAIRHFENKFAVETLICRVSGMWVRRKMV | inactive

Row | Sequence | amyloid nucleation score
101 | EASNCFAIRHFENKFAVETLICRVSSDL | inactive
102 | EASNCFAIRHFENKFAVETLICRVSVFFA | inactive
103 | EASNCFAIRHFENKFAVETLICRVSVLGRCGQVR | inactive
104 | EASNCFAIRHFENKFAVETLICRVTYQCRRVNQW | 3.72
105 | EASNCFAIRHFENKFAVETLICRVVLMLM | inactive
106 | EASNCFAIRHFENKFAVETLICRVVY | inactive
107 | EASNCFAIRHFENKFAVETLICRVWIALISRELR | inactive
108 | EASNCFAIRHFENKFAVETLICRVWNLTGVYAGL | inactive
109 | EASNCFAIRHFENKFAVETLICRVYG | 2.28
110 | EASNCFAIRHFENKFAVETLICRVYRWRYRTWFR | inactive
111 | EASNCFAIRHFENKFAVETLICRWDGGSTAWKRG | inactive
112 | EASNCFAIRHFENKFAVETLICRWFLGLVLSLR | inactive
113 | EASNCFAIRHFENKFAVETLICRWHVKRWLLRGG | inactive
114 | EASNCFAIRHFENKFAVETLICRWNTGSVIFGAW | inactive
115 | EASNCFAIRHFENKFAVETLICRWQAVCVGIMQP | inactive
116 | EASNCFAIRHFENKFAVETLICRWRLGTVRAVC | 0
117 | EASNCFAIRHFENKFAVETLICRWSGDFGVLVLV | inactive
